According to PubChem BioAssay AID651820 (National Center for Advancing Translational Sciences (NCATS), 2012):
Hit rate of the full screen: of about 340,000 compounds, about 12,000 (3.5%) were called active. Inconclusive results, whose numbers are uncertain, are shown with a selection of clear calls. Calls come from the whole dose curve; as a rule, active = well fitted inhibition curve with a large enough effect; inconclusive = small, poorly fitted or top-dose-only effect, or another doubt; inactive = no such curve, though single readings can be large or run the other way. Potencies of inconclusive entries are left out as doubtful fits.

Assay: qHTS Assay for Inhibitors of Hepatitis C Virus (HCV)
Details: Huh7.5.1 HCVcc-Cre (HCVcc is cell-culture hepatitis C virus) infection, luciferase reporter, 44 h; activity change, negative = inhibition: at 41.8 µM (top of the series) unless noted
Summary of the method: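 1,000 cells/well; 4 h culture; + compound; + HCVcc-Cre (~0.5 moi); 44 h; luciferase substrate, RT 15 min; read 15 sec.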
% is set by controls: 0 for no effect and ±100 for the full control effect; potency is the fitted concentration of half-maximal effect; tags give direction and shape of the fitted curve.

| SMILES | Potency | activity change, negative = inhibition |
| --- | --- | --- |
| Cc1ccc2ccc(C(Nc3ccccn3)c3ccccc3)c(O)c2n1 (stereo not drawn) | inconclusive [inhibitor, partial curve] | – |
| CCOC(=O)Cn1nnc(-c2ccc([N+](=O)[O-])cc2)n1 | inactive | – |
| Cc1cc(N2CCOCC2)nc2ccc(NC(=S)N3CCCCC3C)cc12 (stereo not drawn) | inconclusive [inhibitor, partial curve, poor fit] | – |
| O=C(Nn1c(O)c(C=C2N=c3ccccc3=N2)sc1=S)c1ccccc1Cl | inactive | – |
| COc1cc(CNC2CCCC2)c(Br)cc1OC1CCCC1 | inconclusive [inhibitor, full curve, poor fit] | – |
| N#C/C(=C\c1ccc(N2CCOCC2)o1)c1ccccc1 | active: 11.2 µM | – |
| CCOC(=O)CN1C(=O)C(Sc2n[nH]c(-c3ccc(C)cc3)n2)CCc2ccccc21 (stereo not drawn) | inconclusive [inhibitor, single point] | – |
| CCOc1ccc(N(CC(=O)NC2CCCCC2)C(=O)CSc2nnc(COc3ccccc3)o2)cc1 | inconclusive [inhibitor, single point] | – |
| Clc1cccc(CSc2nnc(-c3sccc3-n3cccc3)o2)c1 | inconclusive [inhibitor, partial curve] | – |
| Cc1ccc(NC(=O)Nc2ccccc2)cc1[N+](=O)[O-] | inconclusive [inhibitor, single point] | – |
| COc1ccc(NCC(O)Cn2c(C)c(C)c3ccccc32)cc1 (stereo not drawn) | inconclusive [inhibitor, single point] | – |
| NC(=O)c1c(NC(=O)COC(=O)c2ccc(S(=O)(=O)Nc3ccccc3)cc2)sc2c1CCCC2 | inconclusive [inhibitor, full curve, poor fit] | – |
| Cc1ccc(CNC(=O)N[C@@H](Cc2ccccc2)C(=O)O)cc1 | inconclusive [inhibitor, single point] | – |
| C/C=C/c1ccc(OCCN2CCc3ccccc3C2)c(OC)c1 | inconclusive [inhibitor, single point] | – |
| CC(NC(=O)c1ccco1)C(=O)Nc1nc(-c2ccccn2)cs1 (stereo not drawn) | inconclusive [inhibitor, partial curve] | – |
| Cc1ccc(NC(=O)CCCCCN2C(=O)[C@@H]3Cc4ccccc4CN3C2=O)cc1 | inconclusive [inhibitor, single point] | – |
| c1coc(C2Nc3ccccc3C3OCCC23)c1 (stereo not drawn) | inactive | – |
| Cc1cccc(NC(=O)C2CCCCN2S(=O)(=O)c2ccccc2)c1C (stereo not drawn) | inactive | – |
| COC(=O)c1c(NC(=O)CN2C(=O)NC3(CCCCC3C)C2=O)sc2c1CCC2 (stereo not drawn) | inconclusive [inhibitor, partial curve] | – |
| O=C(CCCN1C(=O)/C(=C/c2cccs2)SC1=S)Nc1cccc(O)c1 | inconclusive [inhibitor, partial curve] | – |
| COc1cc(C(=O)NCC(c2cccnc2)N2CCN(C)CC2)cc(OC)c1OC (stereo not drawn) | inactive | – |
| CC(C)(C)c1ccc(NC(=O)COC(=O)C2(C)CC2(Cl)Cl)cc1 (stereo not drawn) | active: 11.2 µM | – |
| COC(=O)c1ccc(N2NC(=O)/C(=C/c3cc(OC)c(O)c(OC)c3)C2=O)cc1 | inactive | – |
| O=C(NCc1ccccc1Cl)C(=O)NCC(c1ccco1)N1CCOCC1 (stereo not drawn) | inactive | – |
| O=S(=O)(Nc1ccc(Cc2ccncc2)cc1)c1ccc(Br)cc1 | active: 10 µM | – |

| SMILES | Potency | activity change, negative = inhibition |
| --- | --- | --- |
| C/C(=N\NC(=S)Nc1c(C)cccc1C)c1ccc(OC(F)F)cc1 | inconclusive [inhibitor, single point] | – |
| O=C(Cc1cccs1)N/N=C/C=C\c1ccco1 | – | inconclusive: -35.3% [inhibitor] |
| O=C(Nc1ccc(F)cc1F)C1CCCN(c2ncnc3c2nc2n3CCCCC2)C1 (stereo not drawn) | inconclusive [inhibitor, partial curve] | – |
| COc1ccccc1NC(=O)C(C)OC(=O)/C(=C/c1ccccc1)NC(C)=O (stereo not drawn) | inactive | – |
| CCN(CC)c1ncnc2c1sc1nc(C)cc(C)c12 | inconclusive [inhibitor, partial curve] | – |
| Cc1ccc(Nc2ncccc2C(N)=O)cc1[N+](=O)[O-] | inconclusive [inhibitor, partial curve] | – |
| Cc1nc2ccccc2c2oc(C(=O)N3CCN(C4CCCCC4)CC3)cc12 | inconclusive [inhibitor, partial curve] | – |
| N=C1CCCN1CC(=O)c1ccc(Br)cc1 | inactive | – |
| C1=CC(Cc2cncs2)c2ccccc21 (stereo not drawn) | inconclusive [inhibitor, full curve, poor fit] | – |
| COc1cccc(NC(=O)CN(C)C(=O)c2ccc3[nH]c4c(c3c2)CC(C)CC4)c1 (stereo not drawn) | inconclusive [inhibitor, single point] | – |
| O=P(c1ccccc1)(c1ccccc1)C(O)c1ccccn1 (stereo not drawn) | inactive | – |
| Cc1nn(C(=O)CNC(=O)c2ccccc2)c(C)c1C | inactive | – |
| COc1ccccc1C(CNC(=O)c1ccc(NS(=O)(=O)c2ccc3c(c2)OCCO3)cc1)N(C)C (stereo not drawn) | inactive | – |
| N/C(=N/OCc1cccc([N+](=O)[O-])c1)c1nonc1N | inactive | – |
| FC(F)(F)c1ccc(CN2C[C@@H]3C(c4ccc(Cl)nc4)C4(c5ccccc5)CC3(C4)[C@H]2c2ccccc2)cc1 (stereo partly drawn) | inactive | – |
| COC(=O)C1=CN(c2ccc(F)c(F)c2)C=C(C(=O)OC)C1c1ccc([N+](=O)[O-])cc1 | inconclusive [inhibitor, partial curve] | – |
| Cc1cc2nc3ccc(=[N+](C)C)cc-3sc2cc1N | active: 3.16 µM | – |
| COc1cccc(-c2nn(C)c3sc(C(=O)NCc4ccc5c(c4)OCO5)cc23)c1 | active: 14.1 µM | – |
| O=C(c1cc(COc2cccc(C(F)(F)F)c2)on1)N1CCC(c2ccncc2)CC1 | inconclusive [inhibitor, full curve] | – |
| COC(=O)c1cc(NC(=O)c2cc(-c3ccc(Cl)cc3)oc2C(F)(F)F)ccc1N1CCOCC1 | inconclusive [inhibitor, partial curve] | – |
| COc1nc(-c2cccs2)cc(-c2ccc(C)cc2)c1C#N | inconclusive [inhibitor, full curve] | – |
| Cc1cccn2cc(-c3ccc(NC(=O)Cc4ccccc4)cc3)nc12 | inactive | – |
| COc1ccc(CCNC(=O)CN2C(=O)CSc3ccc(S(=O)(=O)N4CCOCC4)cc32)cc1OC | inactive | – |
| N#C/C(=C\c1ccc(-c2cccc([N+](=O)[O-])c2)o1)C(=O)NCCN1CCOCC1 | active: 14.1 µM | – |
| COc1ccc(NC(=O)CSC2=NC(=O)CC(C)=N2)cc1 | inactive | – |

| SMILES | Potency | activity change, negative = inhibition |
| --- | --- | --- |
| CCOC(=O)c1c(C)n(Cc2ccccc2)c2ccc(OCC(O)CN3C(=O)CNC3=O)cc12 (stereo not drawn) | active: 8.91 µM | – |
| COc1ccc(C(=O)NCC(c2ccco2)N2CCc3ccccc32)cc1 (stereo not drawn) | inconclusive [inhibitor, partial curve, poor fit] | – |
| CCOc1ccc(Cl)cc1CSc1n[nH]c(CC)n1 | active: 11.2 µM | – |
| O=C(NCCO)c1cc2c([nH]c3ccccc32)c(-c2ccccc2)n1 | inconclusive [inhibitor, partial curve] | – |
| Cn1c(=O)c2c(SCC(=O)NCc3ccco3)nc(-c3ccccc3Cl)nc2n(C)c1=O | inconclusive [inhibitor, full curve] | – |
| CCOC(=O)c1ccc2c(c1)nc(SCC(=O)NC(C)C)n2CC | inconclusive [inhibitor, single point] | – |
| Cc1ccc(NC(=S)N(CCCN2CCOCC2)Cc2cccs2)c(C)c1 | inactive | – |
| O=c1[nH]c2cc3c(cc2cc1CN(CCc1ccccc1)C(=S)NCCCN1CCOCC1)OCCO3 | inconclusive [inhibitor, single point] | – |
| O=C(CCCCCn1c(SCC(=O)c2ccccc2)nc2ccccc2c1=O)NCc1ccco1 | inconclusive [inhibitor, partial curve] | – |
| Cc1nnc(NC(=O)c2nc(S(=O)(=O)Cc3ccccc3)ncc2Cl)s1 | active: 10 µM | – |
| COc1ccccc1-[n+]1c(C)cc(/C=C2\Sc3ccccc3N2C)cc1C | inconclusive [inhibitor, full curve] | – |
| O=C(NC(O)C(=O)c1ccccc1)c1cccs1 (stereo not drawn) | inactive | – |
| CCN(CC)CCNC(=O)c1ccc(NC(=O)c2c(C)nn(-c3ccc(F)cc3)c2Cl)cc1 | inactive | – |
| Cc1ccc(S(=O)(=O)c2cc3c(=O)n4cccc(C)c4nc3n(C3CCCCC3)c2=N)cc1 | inactive | – |
| CN1CCN(C(=O)c2cc3nc(-c4ccccc4)cc(-c4ccccc4)n3n2)CC1 | active: 11.2 µM | – |
| CO/N=C/NC(=O)NOCc1ncc(C(F)(F)F)cc1Cl | inactive | – |
| CCCc1cc(=O)oc2cc(C)cc(OC(C)C(=O)NCC3CCC(C(=O)O)CC3)c12 (stereo not drawn) | inactive | – |
| CCOc1ccc(NS(=O)(=O)c2ccc(C(=O)NCC(c3ccco3)N(C)C)cc2)cc1 (stereo not drawn) | inconclusive [inhibitor, partial curve] | – |
| Cc1cc(C(=O)N2CC=C(c3ccccc3)CC2)c2ccccc2n1 | inconclusive [inhibitor, full curve] | – |
| O=C(/C=C/c1ccco1)Nc1ccc2nn(-c3ccccc3)nc2c1 | inconclusive [inhibitor, single point] | – |
| COc1ccc(C(NC(=O)CC(C)C)c2c(O)ccc3ccccc23)cc1 (stereo not drawn) | inconclusive [inhibitor, single point] | – |
| O=C(Nc1ccccc1N1CCCCC1)c1cccc([N+](=O)[O-])c1 | inconclusive [inhibitor, single point] | – |
| CCOC(=O)Nc1oc2ccccc2c(=O)c1C | inactive | – |
